Source: PMC11752402 (ACS Nano, 2024)

Target: recombinant human TLR4 (human, UniProt O00206 partial chain)
Test: single-molecule force spectroscopy

Chain of UniProt O00206 (O00206 24-631): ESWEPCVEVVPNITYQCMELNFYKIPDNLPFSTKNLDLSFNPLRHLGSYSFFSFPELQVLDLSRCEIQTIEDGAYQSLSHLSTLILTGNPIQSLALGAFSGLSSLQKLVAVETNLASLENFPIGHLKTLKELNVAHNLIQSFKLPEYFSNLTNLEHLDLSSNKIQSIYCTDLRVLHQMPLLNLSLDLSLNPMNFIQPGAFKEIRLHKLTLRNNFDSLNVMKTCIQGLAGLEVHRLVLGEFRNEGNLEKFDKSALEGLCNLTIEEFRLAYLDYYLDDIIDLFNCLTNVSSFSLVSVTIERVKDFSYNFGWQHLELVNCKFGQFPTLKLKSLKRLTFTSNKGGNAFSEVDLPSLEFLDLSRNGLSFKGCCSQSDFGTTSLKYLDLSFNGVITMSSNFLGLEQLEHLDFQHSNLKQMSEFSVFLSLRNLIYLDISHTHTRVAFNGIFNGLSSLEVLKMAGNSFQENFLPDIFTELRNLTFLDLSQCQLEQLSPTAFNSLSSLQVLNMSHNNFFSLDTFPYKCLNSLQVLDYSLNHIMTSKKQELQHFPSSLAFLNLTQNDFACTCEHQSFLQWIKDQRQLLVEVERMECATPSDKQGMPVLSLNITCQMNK

B1: Staphylococcus aureus iron-regulated surface determinant protein B (IsdB) (natural protein)
chain: not shown
  koff: 6.52 ± 1.44 s⁻¹
